# Experimental data from PubChem BioAssay AID504332 (National Center for Advancing Translational Sciences (NCATS), 2011).
# The whole screen tested about 350,000 compounds, of which about 31,000 (8.9%) were called active. Inconclusive results, whose numbers are uncertain, are shown with a selection of clear calls. Calls come from the whole dose curve; as a rule, active = well fitted inhibition curve with a large enough effect; inconclusive = small, poorly fitted or top-dose-only effect; inactive = no such curve, though single readings can be large or run the other way. A potency beside an inconclusive call is a rough fit, not a confirmed value.
# Target: Histone-lysine N-methyltransferase EHMT2 (Homo sapiens) (UniProt Q96KQ7)
# Sequence of UniProt Q96KQ7 (Q96KQ7 whole entry, looked up): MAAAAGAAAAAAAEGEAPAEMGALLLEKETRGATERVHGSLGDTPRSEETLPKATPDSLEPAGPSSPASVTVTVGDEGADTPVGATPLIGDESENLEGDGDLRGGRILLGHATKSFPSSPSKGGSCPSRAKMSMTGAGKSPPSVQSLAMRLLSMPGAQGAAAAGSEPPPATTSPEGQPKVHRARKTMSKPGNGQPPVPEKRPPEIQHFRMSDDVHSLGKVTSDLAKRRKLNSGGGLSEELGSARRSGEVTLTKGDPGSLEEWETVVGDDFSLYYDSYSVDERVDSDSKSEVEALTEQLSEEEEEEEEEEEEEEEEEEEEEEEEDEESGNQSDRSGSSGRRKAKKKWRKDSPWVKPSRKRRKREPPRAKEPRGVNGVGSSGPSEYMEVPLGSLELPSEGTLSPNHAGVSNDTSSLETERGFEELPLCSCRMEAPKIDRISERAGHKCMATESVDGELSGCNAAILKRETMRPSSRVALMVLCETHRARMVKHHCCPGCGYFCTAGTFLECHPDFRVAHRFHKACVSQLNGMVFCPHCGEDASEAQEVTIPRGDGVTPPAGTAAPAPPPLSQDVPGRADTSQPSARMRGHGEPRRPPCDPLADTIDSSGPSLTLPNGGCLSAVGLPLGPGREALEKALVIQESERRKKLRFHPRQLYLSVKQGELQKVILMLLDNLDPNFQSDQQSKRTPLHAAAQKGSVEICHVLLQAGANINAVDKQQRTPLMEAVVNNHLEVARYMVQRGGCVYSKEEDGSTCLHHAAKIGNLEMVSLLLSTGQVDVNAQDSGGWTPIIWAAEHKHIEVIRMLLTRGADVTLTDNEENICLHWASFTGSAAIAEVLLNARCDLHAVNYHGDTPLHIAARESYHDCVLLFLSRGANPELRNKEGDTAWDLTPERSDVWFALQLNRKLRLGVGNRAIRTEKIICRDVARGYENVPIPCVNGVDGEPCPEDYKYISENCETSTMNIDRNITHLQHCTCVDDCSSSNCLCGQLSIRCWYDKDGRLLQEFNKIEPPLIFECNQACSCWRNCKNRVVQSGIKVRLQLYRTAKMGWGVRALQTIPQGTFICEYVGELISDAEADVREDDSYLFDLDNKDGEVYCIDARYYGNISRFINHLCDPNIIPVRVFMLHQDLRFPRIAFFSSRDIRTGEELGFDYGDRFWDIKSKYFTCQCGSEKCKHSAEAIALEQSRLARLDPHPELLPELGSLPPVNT
# Test: qHTS Assay for Inhibitors of Histone Lysine Methyltransferase G9a; note: nearly all actives have a fitted effect of over 75% in size
# Conditions: G9a H3K9 monomethylation, AlphaScreen, 2 h; activity, negative = inhibition: at 59 µM (top of the series) unless noted
# Outline: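 Chemiluminescent proximity detection of H3K9 monomethylation, read after 10 min bead incubation in the dark. Reaction: 20 nM G9a, 500 nM biotin-H3K9 peptide, 20 uM SAM cofactor, 2 h, room temperature, following 15 min enzyme-compound preincubation.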
# % is set by controls: 0 for no effect and ±100 for the full control effect; potency is the fitted concentration of half-maximal effect; tags give direction and shape of the fitted curve.
SMILES,Potency,"activity, negative = inhibition"
COc1ccc(CN(Cc2ccco2)C(=O)c2ccccc2F)cc1,inactive,
CC(C)CN(C(=O)CSc1nc2ccccc2c(=O)n1C)C1CCS(=O)(=O)C1 (centres undefined),,inactive: -9.12% [at 2.33 µM]
CC(=O)Nc1ccc(/C=C/c2ccc3cccc([N+](=O)[O-])c3n2)cc1,active: 50.1 µM,
Cc1ccc(C(=O)Nc2ccc(S(=O)(=O)N3CCOCC3)cc2)cc1,"inconclusive: 79.4 µM [inhibitor, single point]",
CC1CCN(c2oc(-c3cccs3)nc2S(=O)(=O)c2ccccc2)CC1,"inconclusive: 31.6 µM [inhibitor, single point]",
CCCCOc1ccc(S(=O)(=O)N2CCN(c3ccc(N4CCN(CC)CC4)nn3)CC2)cc1,,inactive: 8.08% [at 2.33 µM]
NS(=O)(=O)c1ccc(N=Nc2c(O)[nH]c3ccc(Br)cc23)cc1,"inconclusive: 79.4 µM [inhibitor, single point]",
O=C1C(c2ccccc2)NC(=S)N1C1CCCCC1 (centres undefined),"inconclusive: 79.4 µM [inhibitor, single point]",
CCN1CCN(c2nc(-c3ccccc3Cl)nc3ccccc23)CC1,"inconclusive: 89.1 µM [inhibitor, single point]",
COc1ccc(-n2nc3ccc(NC(=O)c4cccc(OCCC(C)C)c4)cc3n2)cc1,inactive,
COc1cccc(/C=C2/C(=O)NN(c3ccc(F)cc3)C2=O)c1,active: 44.7 µM,
COC(=O)CC(NC(=S)NC(=O)c1ccccc1)c1ccc(Br)cc1 (centres undefined),active: 39.8 µM,
COc1ccc(-n2cc(-c3ccc4c(c3)OCO4)n(CC(=O)Nc3cc(Cl)ccc3C)c2=O)cc1,"inconclusive: 2.24 µM [inhibitor, full curve]",
CN(C)C(=O)CCc1nc(-c2ccc(C(C)(C)C)cc2)no1,"inconclusive: 5.01 µM [inhibitor, single point]",
COc1cc2c(cc1OC)CN(C(=O)c1ccc(S(=O)(=O)N(C)c3ccccc3)cc1)CC2,"inconclusive: 79.4 µM [inhibitor, partial curve, poor fit]",
CC(OC(=O)c1ccc(-n2cnnn2)cc1)C(=O)N(C)c1ccccc1 (centres undefined),inactive,
O=C(Cc1ccc2c(c1)OCCO2)N1CCN(S(=O)(=O)c2cccs2)CC1,"inconclusive: 56.2 µM [inhibitor, partial curve, poor fit]",
O=C(CSc1nc2ccccc2s1)Nc1cc(S(=O)(=O)N2CCOCC2)ccc1Cl,"inconclusive: 28.2 µM [inhibitor, single point]",
COc1ccc(-c2nc3sc(CCNC(=O)Cc4ccccc4)c(C)n3n2)cc1,active: 3.55 µM,
COC(=O)/C(=C/c1ccco1)NC(=O)c1ccccc1,"inconclusive: 0.794 µM [inhibitor, full curve, poor fit]",
COc1ccc(C(=O)COC(=O)c2ccccc2NS(=O)(=O)c2ccc(O)c([N+](=O)[O-])c2)cc1,"inconclusive: 39.8 µM [inhibitor, partial curve]",
COc1ccc(CNC(=O)c2cnc(N3CCCC3)nc2C)c(OC)c1,inactive,

SMILES,Potency,"activity, negative = inhibition"
Cc1nn(-c2ccccn2)c2nc(-c3cccs3)cc(C(=O)N3CCOCC3)c12,"inconclusive: 25.1 µM [inhibitor, single point]",
O=C(Cc1cccc(NC(=O)C2CCN(C(=O)C3CC3)CC2)c1)Nc1cccc(C(=O)N2CCCC2)c1,,inactive: -34.8% [at 2.33 µM]
CCc1ccc(C(=O)c2cn(CC(=O)Nc3cc(OC)ccc3OC)c3ccc(Cl)cc3c2=O)cc1,inactive,
CCOC(=O)c1nn(-c2ccc(F)cc2)c(=O)cc1OCC(=O)N1CCN(c2ccccc2)CC1,"inconclusive: 2.51 µM [inhibitor, full curve]",
O=S(=O)(CCc1ccccc1)N1CCOCC1,inactive,
CCSc1nnc(NC(=O)C(C(F)(F)F)C(F)(F)F)s1,,inactive: 11.7% [at 12.7 µM]
COc1ccc(SCc2noc(C(=O)NC(C)C)c2C(=O)O)cc1,,inactive: 4.19% [at 0.0925 µM]
CCN(CC)S(=O)(=O)c1ccc2c(c1)N(CC(=O)NCCCN1CCN(c3ccc(OC)cc3)CC1)C(=O)CO2,"inconclusive: 25.1 µM [inhibitor, single point]",
Cc1ccc(C(=O)N/C(=C/C=C\c2ccccc2)C(=O)NCc2ccco2)cc1,active: 44.7 µM,
COc1ccccc1CNC(=O)c1cn(C)c(=O)c2cc(OC)c(OC)cc12,inactive,
CCN(CCCNC(=O)CCNC(=O)Cn1cnc2ccccc2c1=O)c1cccc(C)c1,,inconclusive: -74.6% [inhibitor] [at 12.7 µM]
Cc1ccc2nc(-c3cccs3)c(Nc3ccc4c(c3)OCCO4)n2c1,"inconclusive: 0.794 µM [inhibitor, partial curve, poor fit]",
COc1ccc2nc(NC(=O)C3CCCN(S(=O)(=O)c4cccc5nonc45)C3)sc2c1 (centres undefined),"inconclusive: 25.1 µM [inhibitor, single point]",
Cc1cc(-c2ccccc2)nnc1NCCN1CCOCC1,inactive,
COc1ccc(-n2c(C)c3c(OC)cccc(=O)c3c2C)cc1,"inconclusive: 14.1 µM [inhibitor, partial curve, poor fit]",
CN(Cc1ccco1)c1ncnc2ccc(-c3ccccc3C#N)cc12,,inactive: 1.63% [at 0.501 µM]
OCCN(Cc1nc(-c2ccc3c(c2)OCO3)no1)Cc1cccs1,"inconclusive: 22.4 µM [inhibitor, single point]",
CSCC[C@H](NC(=O)NCCC1=CCCCC1)C(=O)O,"inconclusive: 50.1 µM [inhibitor, partial curve, poor fit]",
CCOCCCNC(=O)c1ccc2c(=O)n(CCCOCC)c(=S)[nH]c2c1,active: 10 µM,
O=C(c1ccco1)N1CCN(C2CC(=O)N(c3ccc(F)c(Cl)c3)C2=O)CC1 (centres undefined),active: 28.2 µM,
Cc1cc(C(=O)COC(=O)c2ccc(Br)o2)c(C)n1C,"inconclusive: 50.1 µM [inhibitor, partial curve]",
O=C(O)c1ccc(N2C(=O)CC(SC(=NCc3ccc4c(c3)OCO4)Nc3ccc(F)cc3)C2=O)cc1 (centres undefined),"inconclusive: 44.7 µM [inhibitor, partial curve]",
